Measurements as given in the supplement of paper PMC12632987.
The full ranking holds about 1,800 sequences; the median of “median log2 fold change of GCK-ALFA target abundance (FLAG IP / Myc IP barcode read proportion)” is about 0.14, and the lowest 2% start at about -0.84. The list shows a part of the results.

T1: TRAF2, Q12933
T1 chain: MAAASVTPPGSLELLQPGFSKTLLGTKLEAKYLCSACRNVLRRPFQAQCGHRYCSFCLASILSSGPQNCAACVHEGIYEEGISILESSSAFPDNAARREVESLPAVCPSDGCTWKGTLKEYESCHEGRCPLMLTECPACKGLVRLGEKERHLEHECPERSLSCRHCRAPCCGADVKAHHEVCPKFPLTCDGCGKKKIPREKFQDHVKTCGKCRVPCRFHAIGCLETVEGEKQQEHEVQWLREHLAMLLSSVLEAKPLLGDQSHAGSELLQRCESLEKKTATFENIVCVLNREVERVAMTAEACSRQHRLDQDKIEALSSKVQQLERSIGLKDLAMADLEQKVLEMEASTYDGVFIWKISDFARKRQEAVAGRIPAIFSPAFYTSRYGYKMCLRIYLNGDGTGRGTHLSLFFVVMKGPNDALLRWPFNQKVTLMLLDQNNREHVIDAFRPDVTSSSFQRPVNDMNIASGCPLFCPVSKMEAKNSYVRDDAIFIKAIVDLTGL

B1: traf2_out_13_95_1149 (protein)
chain: SAETAAEINAIADEMLDEVEKLLEELLKIAKEKGVPTEPFQKALDLAKYQSVNEAIHLLKELSKKYPELKEEIDKTIEEIEKLKREAGRKVAEVLKKAKA
B2: traf2_out_3_89_2304 (protein)
chain: MEERERKIREMEERRDAYIRGFEKSARRVAKEMLEEGMSLETIRGVLEAARTALVEELREEARERGLSEEDIERLSKDAEERLGKIVEEVVKEAEERRKE
B3: traf2_out_20_3_2156 (protein)
chain: SALEAAAQAALDRAIALLAEAAALADPETAARLEALRARVEASRSLSPSDRLVVLSEVRREVRALAEEARRAGREELAAVLEAAADALNRAMNLTYQLIQ
B4: traf2_out_6_156_2405 (protein)
chain: MLEEIEEETLKEIEELIKELAAASEEKKIAYISKIAGTFYRGLQRARAAGASVEELEAFGKRVLEKTKELLDEEGLPQDVKDLILSSLNAVFDVALAEAR
B5: traf2_out_19_87_1994 (protein)
chain: NEKAREEMREYQDKLVDYKDEAVKLAQEALGLSEEEARALSRLSIEALRETVDAKFAEAIAADPEKAEELEAAREEIDKLLDKAKEAAKKLAEAFEEYEK
B6: traf2_out_18_167_1830 (protein)
chain: EEEIRKKKSELMDKMVEWSEVRREAQELLQTLEKDPSKLPEVLKKLEELAEKTGKFKEEVEAIKKLPPEEALKAAKELLEKIIEEAQRKMNELYKEYEKL
B7: traf2_out_17_162_1628 (protein)
chain: SPREERLEELKRRLEELEEKRKRLEELSKKIDELSKEELTDYLVEASEARREARELAEEARRLREELNDPELEELIRRAEELAEKFQRIANKFYEKLLEK
B8: traf2_out_13_95_1198 (protein)
chain: EEEKTRKIREVTNRIADELLDFVDATAERVEEETGDAAAKARILAALNGRGVSAAIEVLRRLAAEDPEHAAVYLAAAAELEAKRREAGRRVAEELKKIEE

Target: T1, TRAF2, Q12933
Experiment: median log2 fold change of GCK-ALFA target abundance (FLAG IP / Myc IP barcode read proportion) (log2 ratio); each designed protein is fused to an ALFA-tag nanobody in HEK293 cells to bring the named protein to FLAG-tagged glucokinase (GCK); Myc marks an untargeted standard; higher = target protein stabilised (more abundant)
Conditions: target protein: 3xFLAG-MCP-GCK-ALFA reporter; HEK293 landing pad (RPLP)
Method in brief: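 Sequencing of reverse-transcribed, amplified circular RNA barcodes from anti-FLAG and anti-Myc immunoprecipitates provided the readout for an ALFA-nanobody-fused binder library recombined into HEK293 landing-pad cells. Those cells were induced with 2 μg mL^−1 doxycycline, transfected with a plasmid expressing a FLAG-tagged target and a Myc-tagged standard, and lysed after 48 h. Target abundance is the per-binder median log2 ratio of FLAG to Myc barcode read proportions. Only barcodes at a proportion of ≥10^−7 in both replicates and binders with ≥3 barcodes per replicate were kept, with a 10^−6 pseudocount added before the two replicates were pooled.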

First: B1
Second: B2
The “median log2 fold change” value of the first is higher: -0.199 for the first, -0.744 for the second.

B3 and B4 are within 0.2 log units of each other in “median log2 fold change” value: 0.0138 for the first, 0.151 for the second.

B5 and B6 are within 0.2 log units of each other in “median log2 fold change” value: 0.24 for the first, 0.316 for the second.

First: B7
Second: B8
The “median log2 fold change” value of the first is higher: 0.285 for the first, -0.375 for the second.
